Here are results for 36 compounds from the supplement of paper PMC9588766.

Structures can show the parent of a compound that is named as a salt. Whole data set: some 1,900 compounds, median “cell viability of compound + 1 nM pemigatinib relative to pemigatinib-only (DMSO) wells” near 0.95, cut for the lowest 2% near 0.22. The list shows a part of the results.

The test system of this test is PDC-DUC18828. The experiment in a line: cell viability of compound + 1 nM pemigatinib relative to pemigatinib-only (DMSO) wells (fraction); PDC-DUC18828 is a patient-derived cholangiocarcinoma cell line; higher = less growth inhibition. The settings on record: first compound 1 µM; pemigatinib concentration 1 nM; 72 h. The procedure:
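Selleck Bioactive library screen in the patient-derived FGFR2 fusion-positive ICC cell line PDC-DUC18828 (500 cells/well). Each compound was tested at 1 uM with 1 nM pemigatinib, in triplicate, for 72 h. Viability was read by CellTiter-Glo and normalised to plate DMSO controls. Value is the paper's averaged normalised viability.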
For the compound `CC(C)(O)CC[C@@H](O)[C@](C)(O)[C@H]1CC[C@@]2(O)C3=CC(=O)[C@@H]4C[C@@H](O)[C@@H](O)C[C@]4(C)[C@H]3CC[C@]12C` [20-Hydroxyecdysone] + CCN1C(=O)N(c2c(F)c(OC)cc(OC)c2F)Cc2cnc3[nH]c(CN4CCOCC4)cc3c21 [pemigatinib], the cell viability is 0.922.

Consider `CNC(=O)c1nn(C)c2c1C(C)(C)Cc1cnc(Nc3ccc(N4CCN(C)CC4)cc3)nc1-2` + CCN1C(=O)N(c2c(F)c(OC)cc(OC)c2F)Cc2cnc3[nH]c(CN4CCOCC4)cc3c21 [pemigatinib], for which the cell viability came to 0.67.

Turning to `CN(C)CCCOc1nn(Cc2ccccc2)c2ccccc12` [Benzydamine HCl] + CCN1C(=O)N(c2c(F)c(OC)cc(OC)c2F)Cc2cnc3[nH]c(CN4CCOCC4)cc3c21 [pemigatinib], the cell viability is 1.05.

Turning to `O=C1c2c(O)cc(O)cc2OC(c2ccc(O)c(O)c2)C1O` (stereo unspecified) [Taxifolin (Dihydroquercetin)] + CCN1C(=O)N(c2c(F)c(OC)cc(OC)c2F)Cc2cnc3[nH]c(CN4CCOCC4)cc3c21 [pemigatinib], the cell viability was 0.92.

Turning to `FC(F)(F)c1ccc(/C=C/c2nc(COc3ccc(CCCCn4ccnn4)cc3)co2)cc1` [Mubritinib (TAK 165)] + CCN1C(=O)N(c2c(F)c(OC)cc(OC)c2F)Cc2cnc3[nH]c(CN4CCOCC4)cc3c21 [pemigatinib], the cell viability is 0.907.

Regarding `CC(=O)OCC(=O)[C@@]1(O)CC[C@H]2[C@@H]3CCC4=CC(=O)CC[C@]4(C)[C@H]3C(=O)C[C@@]21C` [Cortisone acetate] + CCN1C(=O)N(c2c(F)c(OC)cc(OC)c2F)Cc2cnc3[nH]c(CN4CCOCC4)cc3c21 [pemigatinib], the cell viability was found to be 0.864.

For the compound `CNS(=O)(=O)Nc1nccc(Cc2c(C)c3ccc(Oc4ncccn4)cc3oc2=O)c1F` + CCN1C(=O)N(c2c(F)c(OC)cc(OC)c2F)Cc2cnc3[nH]c(CN4CCOCC4)cc3c21 [pemigatinib], the cell viability came to 0.713.

For the compound `OC[C@@H](O)[C@@H](O)[C@H](O)[C@@H](O)CO` [Sorbitol] + CCN1C(=O)N(c2c(F)c(OC)cc(OC)c2F)Cc2cnc3[nH]c(CN4CCOCC4)cc3c21 [pemigatinib], the cell viability came out at 0.89.

On to `CC(C)(C)c1cc(C(=O)C(C#N)=NNc2cccc(Cl)c2)no1` + CCN1C(=O)N(c2c(F)c(OC)cc(OC)c2F)Cc2cnc3[nH]c(CN4CCOCC4)cc3c21 [pemigatinib], for which the cell viability worked out at 1.02.

Take `OCc1ccc(O[C@@H]2O[C@H](CO)[C@@H](O)[C@H](O)[C@H]2O)cc1` [Gastrodin] + CCN1C(=O)N(c2c(F)c(OC)cc(OC)c2F)Cc2cnc3[nH]c(CN4CCOCC4)cc3c21 [pemigatinib]: the cell viability was 0.957.

Regarding `O=C(NC(NC(=S)Nc1ccc(F)c([N+](=O)[O-])c1)C(Cl)(Cl)Cl)C(c1ccccc1)c1ccccc1` (stereo unspecified) + CCN1C(=O)N(c2c(F)c(OC)cc(OC)c2F)Cc2cnc3[nH]c(CN4CCOCC4)cc3c21 [pemigatinib], the cell viability turned out to be 0.9.

For `CCc1cc(C(N)=S)ccn1` [Ethionamide] + CCN1C(=O)N(c2c(F)c(OC)cc(OC)c2F)Cc2cnc3[nH]c(CN4CCOCC4)cc3c21 [pemigatinib], the cell viability turned out to be 0.979.

For `Cc1cn([C@@H]2C[C@@H](O)[C@H](CO)O2)c(=O)[nH]c1=O` [Telbivudine] + CCN1C(=O)N(c2c(F)c(OC)cc(OC)c2F)Cc2cnc3[nH]c(CN4CCOCC4)cc3c21 [pemigatinib], the cell viability was 0.954.

With `Cc1cc(NC(=O)c2cccc(NC(=O)/C=C/CN(C)C)c2)ccc1Nc1nccc(-c2cccnc2)n1` + CCN1C(=O)N(c2c(F)c(OC)cc(OC)c2F)Cc2cnc3[nH]c(CN4CCOCC4)cc3c21 [pemigatinib], the cell viability was 0.873.

With `Cc1cccc(Nc2cc(Cl)nc(SCC(=O)O)n2)c1C` + CCN1C(=O)N(c2c(F)c(OC)cc(OC)c2F)Cc2cnc3[nH]c(CN4CCOCC4)cc3c21 [pemigatinib], the cell viability came to 0.981.

As for `O=C(N/N=C/c1ccc([N+](=O)[O-])o1)c1ccc(O)cc1` [Nifuroxazide] + CCN1C(=O)N(c2c(F)c(OC)cc(OC)c2F)Cc2cnc3[nH]c(CN4CCOCC4)cc3c21 [pemigatinib], the cell viability is 0.972.

For `CCC[C@H](NC(=O)/C(C#N)=C/c1cccc(Br)n1)c1ccccc1` [Degrasyn (WP1130)] + CCN1C(=O)N(c2c(F)c(OC)cc(OC)c2F)Cc2cnc3[nH]c(CN4CCOCC4)cc3c21 [pemigatinib], the cell viability is 0.857.

In the case of `CCOC(=O)NCCCC(=O)NCCc1ccccc1` + CCN1C(=O)N(c2c(F)c(OC)cc(OC)c2F)Cc2cnc3[nH]c(CN4CCOCC4)cc3c21 [pemigatinib], the cell viability was found to be 0.972.

Turning to `C=C1/C(=C\C=C2/CCC[C@]3(C)[C@@H]([C@H](C)CCCC(C)(C)O)CC[C@@H]23)C[C@@H](O)C[C@@H]1O` [Calcitriol] + CCN1C(=O)N(c2c(F)c(OC)cc(OC)c2F)Cc2cnc3[nH]c(CN4CCOCC4)cc3c21 [pemigatinib], the cell viability stood at 0.941.

On to `CCc1c2c(nc3ccc(OC(=O)N4CCC(N5CCCCC5)CC4)cc13)-c1cc3c(c(=O)n1C2)COC(=O)[C@]3(O)CC` [Irinotecan HCl Trihydrate] + CCN1C(=O)N(c2c(F)c(OC)cc(OC)c2F)Cc2cnc3[nH]c(CN4CCOCC4)cc3c21 [pemigatinib], for which the cell viability came to 0.501.

`CCc1c2c(nc3ccc(OC(=O)N4CCC(N5CCCCC5)CC4)cc13)-c1cc3c(c(=O)n1C2)COC(=O)[C@]3(O)CC` [Irinotecan] + CCN1C(=O)N(c2c(F)c(OC)cc(OC)c2F)Cc2cnc3[nH]c(CN4CCOCC4)cc3c21 [pemigatinib]: the cell viability was found to be 0.353.

For the compound `C[C@H]1[C@H](NC(=O)/C(=N\OC(C)(C)C(=O)O)c2csc(N)n2)C(=O)N1S(=O)(=O)O` [Aztreonam] + CCN1C(=O)N(c2c(F)c(OC)cc(OC)c2F)Cc2cnc3[nH]c(CN4CCOCC4)cc3c21 [pemigatinib], the cell viability is 0.954.

On to `COC(=O)c1ccc2c(c1)[nH]c1ncnc(NCCCN3CCCCC3)c12` + CCN1C(=O)N(c2c(F)c(OC)cc(OC)c2F)Cc2cnc3[nH]c(CN4CCOCC4)cc3c21 [pemigatinib], for which the cell viability amounted to 0.929.

Take `OC[C@H]1O[C@@H](OCCc2ccc(O)cc2)[C@H](O)[C@@H](O)[C@@H]1O` [Salidroside] + CCN1C(=O)N(c2c(F)c(OC)cc(OC)c2F)Cc2cnc3[nH]c(CN4CCOCC4)cc3c21 [pemigatinib]: the cell viability came out at 0.866.

As to `CC(C)CN(C[C@@H](O)[C@H](Cc1ccccc1)NC(=O)O[C@H]1CCOC1)S(=O)(=O)c1ccc(N)cc1` [Amprenavir] + CCN1C(=O)N(c2c(F)c(OC)cc(OC)c2F)Cc2cnc3[nH]c(CN4CCOCC4)cc3c21 [pemigatinib], the cell viability was determined as 0.988.

On to `CCC1=C[C@@H]2CN(C1)Cc1c([nH]c3ccccc13)[C@@](C(=O)OC)(c1cc3c(cc1OC)N(C)[C@H]1[C@@](O)(C(=O)OC)[C@H](OC(C)=O)[C@]4(CC)C=CCN5CC[C@]31[C@@H]54)C2` [Vinorelbine Tartrate] + CCN1C(=O)N(c2c(F)c(OC)cc(OC)c2F)Cc2cnc3[nH]c(CN4CCOCC4)cc3c21 [pemigatinib], for which the cell viability turned out to be 0.249.

In the case of `CNC(=C[N+](=O)[O-])NCCSCc1csc(CN(C)C)n1` [Nizatidine] + CCN1C(=O)N(c2c(F)c(OC)cc(OC)c2F)Cc2cnc3[nH]c(CN4CCOCC4)cc3c21 [pemigatinib], the cell viability is 0.937.

`CS(=O)(=O)Nc1ccc([N+](=O)[O-])cc1Oc1ccccc1` [Nimesulide] + CCN1C(=O)N(c2c(F)c(OC)cc(OC)c2F)Cc2cnc3[nH]c(CN4CCOCC4)cc3c21 [pemigatinib]: the cell viability turned out to be 1.04.

For the compound `C=CC(=O)Nc1cccc(Nc2nc(Nc3ccc(NC4CN(CCF)C4)cc3OC)ncc2C(F)(F)F)c1` + CCN1C(=O)N(c2c(F)c(OC)cc(OC)c2F)Cc2cnc3[nH]c(CN4CCOCC4)cc3c21 [pemigatinib], the cell viability came out at 0.811.

With `c1ccc2c(Oc3nc(Nc4ccc(N5CCOCC5)cc4)c4ncn(C5CCCCC5)c4n3)cccc2c1` [Purmorphamine] + CCN1C(=O)N(c2c(F)c(OC)cc(OC)c2F)Cc2cnc3[nH]c(CN4CCOCC4)cc3c21 [pemigatinib], the cell viability is 0.897.

With `C[C@]12C=CC(=O)C=C1CC[C@@H]1[C@@H]2C(=O)C[C@@]2(C)[C@H]1CC[C@]2(O)C(=O)CO` [Prednisone] + CCN1C(=O)N(c2c(F)c(OC)cc(OC)c2F)Cc2cnc3[nH]c(CN4CCOCC4)cc3c21 [pemigatinib], the cell viability was 1.

Consider `CCOC(=O)CCC(=O)O[C@H]1[C@H](O[C@@H]2[C@@H](C)[C@H](O[C@H]3C[C@@](C)(OC)[C@@H](O)[C@H](C)O3)[C@@H](C)C(=O)O[C@H](CC)[C@@](C)(O)[C@H](O)[C@@H](C)C(=O)[C@H](C)C[C@@]2(C)O)O[C@H](C)C[C@@H]1N(C)C` [Erythromycin Ethylsuccinate] + CCN1C(=O)N(c2c(F)c(OC)cc(OC)c2F)Cc2cnc3[nH]c(CN4CCOCC4)cc3c21 [pemigatinib], for which the cell viability came to 0.985.

With `COc1cc(NC(=O)c2ccc(-c3ccc(Cl)cc3)o2)cc(OC)c1` + CCN1C(=O)N(c2c(F)c(OC)cc(OC)c2F)Cc2cnc3[nH]c(CN4CCOCC4)cc3c21 [pemigatinib], the cell viability was found to be 1.01.

With `C[C@@H]1CN(c2c(F)c(N)c3c(=O)c(C(=O)O)cn(C4CC4)c3c2F)C[C@H](C)N1` [Sparfloxacin] + CCN1C(=O)N(c2c(F)c(OC)cc(OC)c2F)Cc2cnc3[nH]c(CN4CCOCC4)cc3c21 [pemigatinib], the cell viability was determined as 1.

As to `CCn1cc(C(=O)O)c(=O)c2cc(F)c(N3CCN(C)CC3)cc21` [Pefloxacin Mesylate Dihydrate] + CCN1C(=O)N(c2c(F)c(OC)cc(OC)c2F)Cc2cnc3[nH]c(CN4CCOCC4)cc3c21 [pemigatinib], the cell viability was determined as 0.997.

Turning to `CCn1cc(C(=O)O)c(=O)c2cc(F)c(N3CCN(C)CC3)cc21` [Pefloxacin Mesylate] + CCN1C(=O)N(c2c(F)c(OC)cc(OC)c2F)Cc2cnc3[nH]c(CN4CCOCC4)cc3c21 [pemigatinib], the cell viability is 0.964.
